By IC50 is meant the dose at which the fit gives 50% viability; where the fit passes the top or lowest dose, that dose stands as a limit. AUC, from the same fit, is the share of area under the viability curve across the 256-fold dose range: 1 means no effect, lower means more sensitive. For some assays here: An inferred top dose was calculated from the reported fits. For some assays here: An entry number marks a drug with two screens in the source, which often give different values.
How the values were obtained:
Test in all cases: Viability of human cancer cell lines after 72 h of drug (GDSC screen)
Masitinib = compound: Cc1ccc(NC(=O)c2ccc(CN3CCN(C)CC3)cc2)cc1Nc1nc(-c2cccnc2)cs1 [Masitinib]; conditions: top dose 20 µM
Experimental: (§1)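 Human cancer cell lines in 384-well plates, medium with 10% serum, drug for 72 h over a 256-fold dose range (nine 2-fold or five 4-fold steps up to the top dose). Adherent lines were fixed and stained with the nucleic acid dye Syto60, suspension lines read with resazurin; signal relative to control wells, capped at 0 and 100%. One two-parameter sigmoid per drug and line, fitted in a mixed model over all curves with the slope shared within a line.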

OSI-930 = compound: O=C(Nc1ccc(OC(F)(F)F)cc1)c1sccc1NCc1ccnc2ccccc12 [OSI-930]; conditions: top dose 10.24 µM
Experimental: as §1

VNLG/124 = compound: CCCC(=O)OCc1ccc(OC(=O)/C=C(C)/C=C/C=C(C)/C=C/C2=C(C)CCCC2(C)C)cc1 [VNLG/124]; conditions: top dose 5.12 µM; top dose inferred
Experimental: as §1

Bleomycin = compound: Cc1c(N)nc([C@H](CC(N)=O)NC[C@H](N)C(N)=O)nc1C(=O)N[C@H](C(=O)N[C@H](C)[C@@H](O)[C@H](C)C(=O)N[C@H](C(=O)NCCc1nc(-c2nc(C(=O)NCCC[S+](C)C)cs2)cs1)[C@@H](C)O)[C@@H](OC1OC(CO)C(O)C(O)C1OC1OC(CO)C(O)C(OC(N)=O)C1O)c1cnc[nH]1 [Bleomycin]
Experimental: as §1

Tamoxifen = compound: CC/C(=C(\c1ccccc1)c1ccc(OCCN(C)C)cc1)c1ccccc1 [Tamoxifen]; conditions: top dose 5 µM
Experimental: as §1

Elesclomol = compound: CN(NC(=O)CC(=O)NN(C)C(=S)c1ccccc1)C(=S)c1ccccc1 [Elesclomol]; conditions: top dose 0.2 µM; top dose inferred
Experimental: as §1

NSC-87877 = compound: O=S(=O)(O)c1ccc2cc(N=Nc3cc(S(=O)(=O)O)c4cccnc4c3O)ccc2c1 [NSC-87877]; conditions: top dose 16 µM; top dose inferred
Experimental: as §1

BX-912 = compound: O=C(Nc1cccc(Nc2ncc(Br)c(NCCc3cnc[nH]3)n2)c1)N1CCCC1 [BX-912]; conditions: top dose 10.24 µM; top dose inferred
Experimental: as §1

LAQ824 = compound: O=C(/C=C/c1ccc(CN(CCO)CCc2c[nH]c3ccccc23)cc1)NO [LAQ824]; conditions: top dose 1.024 µM; top dose inferred
Experimental: as §1

[1] = top dose 50 µM, screen: GDSC drug entry 1378, top dose inferred
[2] = top dose 64 µM, screen: GDSC drug entry 190

| Cell Line | AUC (Masitinib) | IC50 (Masitinib) [µM] | AUC (OSI-930) | IC50 (OSI-930) [µM] | AUC (VNLG/124) | IC50 (VNLG/124) [µM] | AUC (Bleomycin; [1]) | IC50 (Bleomycin; [1]) [µM] | AUC (Bleomycin; [2]) | IC50 (Bleomycin; [2]) [µM] | AUC (Tamoxifen) | IC50 (Tamoxifen) [µM] | AUC (Elesclomol) | IC50 (Elesclomol) [µM] | AUC (NSC-87877) | IC50 (NSC-87877) [µM] | AUC (BX-912) | IC50 (BX-912) [µM] | AUC (LAQ824) | IC50 (LAQ824) [µM] |
| --- | --- | --- | --- | --- | --- | --- | --- | --- | --- | --- | --- | --- | --- | --- | --- | --- | --- | --- | --- | --- |
| COLO-680N (oesophagus, adherent) | 0.922 | > 20 | 0.986 | > 10.2 | 0.986 | > 5.12 | 0.922 | > 50 | 0.56 | 6.03 | 0.985 | > 5 | 0.943 | > 0.2 | 0.975 | > 16 | 0.978 | > 10.2 | 0.365 | 0.0253 |
| AN3-CA (endometrium, adherent) | 0.879 | > 20 | 0.972 | > 10.2 | 0.978 | > 5.12 | 0.827 | 34.5 | 0.429 | 2.51 | 0.95 | > 5 | 0.5 | 0.0125 | 0.834 | 11.9 | 0.903 | > 10.2 | 0.399 | 0.0329 |
| SCH (stomach, adherent) | 0.971 | > 20 | 0.978 | > 10.2 | 0.978 | > 5.12 | 0.531 | 3.83 | 0.957 | > 64 | 0.983 | > 5 | 0.875 | > 0.2 | 0.988 | > 16 | 0.988 | > 10.2 | 0.789 | 0.49 |
| NCI-H322M (lung adenocarcinoma, suspension) | 0.957 | > 20 | 0.985 | > 10.2 | 0.985 | > 5.12 | 0.924 | > 50 | 0.983 | > 64 | 0.976 | > 5 | 0.964 | > 0.2 | 0.987 | > 16 | 0.98 | > 10.2 | 0.909 | > 1.02 |
| Saos-2 (osteosarcoma, adherent) | 0.981 | > 20 | 0.974 | > 10.2 | 0.974 | > 5.12 | 0.662 | 10.8 | 0.272 | 0.671 | 0.941 | > 5 | 0.505 | 0.0129 | 0.879 | > 16 | 0.981 | > 10.2 | 0.626 | 0.165 |
| NCI-H596 (lung adenocarcinoma, adherent) | 0.908 | > 20 | 0.982 | > 10.2 | 0.979 | > 5.12 | 0.734 | 18 | 0.658 | 12.5 | 0.964 | > 5 | 0.695 | 0.0523 | 0.982 | > 16 | 0.943 | > 10.2 | 0.549 | 0.0907 |
| REH (B-cell leukaemia, suspension) | 0.848 | 13.9 | 0.93 | > 10.2 | 0.97 | > 5.12 | 0.376 | 1.44 | 0.06 | < 0.25 | 0.961 | > 5 | 0.59 | 0.0218 | 0.983 | > 16 | 0.44 | 0.443 | 0.322 | 0.0209 |
| L-363 (myeloma, suspension) | 0.817 | 9.29 | 0.867 | 7.25 | 0.984 | > 5.12 | 0.963 | > 50 | 0.903 | > 64 | 0.976 | > 5 | 0.445 | 0.00906 | 0.989 | > 16 | 0.873 | 7.62 | 0.3 | 0.0192 |
| JHH-4 (liver, adherent) | 0.888 | > 20 | 0.987 | > 10.2 | 0.971 | > 5.12 | 0.681 | 9.98 | 0.598 | 7.42 | 0.983 | > 5 | 0.838 | 0.135 | 0.971 | > 16 | 0.967 | > 10.2 | 0.559 | 0.0928 |
| NCI-H727 (lung carcinoid, adherent) | 0.889 | > 20 | 0.963 | > 10.2 | 0.977 | > 5.12 | 0.957 | > 50 | 0.575 | 7.33 | 0.973 | > 5 | 0.927 | > 0.2 | 0.927 | > 16 | 0.954 | > 10.2 | 0.306 | 0.0126 |
| MFH-ino (soft tissue, adherent) | 0.973 | > 20 | 0.965 | > 10.2 | 0.981 | > 5.12 | 0.37 | 1.28 | 0.054 | < 0.25 | 0.976 | > 5 | 0.555 | 0.0182 | 0.983 | > 16 | 0.931 | > 10.2 | 0.413 | 0.0355 |
| NCI-H2081 (small cell lung carcinoma, suspension) | 0.925 | > 20 | 0.975 | > 10.2 | 0.987 | > 5.12 | 0.962 | > 50 | 0.928 | > 64 | 0.988 | > 5 | 0.91 | > 0.2 | 0.978 | > 16 | 0.591 | 1.15 | 0.482 | 0.0568 |
| MC-IXC (neuroblastoma, adherent) | 0.91 | 14.5 | 0.99 | > 10.2 | 0.996 | > 5.12 | 0.517 | 3.44 | 0.459 | 3.18 | 0.996 | > 5 | 0.436 | 0.00877 | 0.991 | > 16 | 0.841 | 4.53 | 0.423 | 0.0417 |
